Results reported in PubChem BioAssay AID488969 (Vanderbilt High Throughput Screening Facility, 2010).
The full ranking holds about 110,000 compounds; the median of “z-score” is about -0.1, and the highest 2% start at about 2. This is one part of the list. Active and inactive are the calls of the source.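 Rule for the calls: active = z-score in the third read window above 3 or below -3; inactive = the rest.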

Target: Metabotropic glutamate receptor 8 (Rattus norvegicus) (UniProt P70579)
Assay: rat mGluR8 modulators via GIRK flux, primary screen, cell-based, thallium flux, HTS (AID 488969)
Settings: HEK293 rat mGluR8, GIRK (G protein-gated inwardly rectifying potassium channel) thallium flux, FluoZin2; at 10 µM; stronger effect = higher value; submaximal glutamate (EC20) added with thallium

Chain of UniProt P70579 (P70579 whole entry, looked up): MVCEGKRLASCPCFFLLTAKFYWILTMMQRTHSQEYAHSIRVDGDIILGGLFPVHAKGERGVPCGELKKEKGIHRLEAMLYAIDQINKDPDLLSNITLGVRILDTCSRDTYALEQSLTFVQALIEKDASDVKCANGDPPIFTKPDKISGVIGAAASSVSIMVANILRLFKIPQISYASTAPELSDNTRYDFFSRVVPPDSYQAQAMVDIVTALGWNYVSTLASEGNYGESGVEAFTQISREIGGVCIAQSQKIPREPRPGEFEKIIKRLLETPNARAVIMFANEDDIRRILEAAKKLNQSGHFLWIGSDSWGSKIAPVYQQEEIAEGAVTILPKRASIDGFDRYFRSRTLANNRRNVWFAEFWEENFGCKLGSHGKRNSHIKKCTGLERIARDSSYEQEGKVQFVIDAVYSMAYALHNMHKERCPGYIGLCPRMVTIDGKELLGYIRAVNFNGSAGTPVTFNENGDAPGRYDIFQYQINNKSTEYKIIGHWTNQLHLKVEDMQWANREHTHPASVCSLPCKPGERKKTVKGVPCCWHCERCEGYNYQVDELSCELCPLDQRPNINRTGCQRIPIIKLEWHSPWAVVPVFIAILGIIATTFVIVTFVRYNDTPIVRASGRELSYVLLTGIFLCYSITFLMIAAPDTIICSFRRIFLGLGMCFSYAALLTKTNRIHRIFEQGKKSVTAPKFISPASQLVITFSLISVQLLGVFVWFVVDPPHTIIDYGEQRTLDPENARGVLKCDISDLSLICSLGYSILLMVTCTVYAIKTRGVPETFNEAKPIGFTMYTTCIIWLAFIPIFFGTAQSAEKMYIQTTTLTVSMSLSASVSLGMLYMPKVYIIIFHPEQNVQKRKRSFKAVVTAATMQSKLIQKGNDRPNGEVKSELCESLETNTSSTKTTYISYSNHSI

First: CCCCSc1nc2c(cc1C#N)CCC2
Second: N#Cc1cc2c(nc1SCc1ccc(Cl)cc1)CCCC2
The z-score of the first is higher: 0.273 for the first, -0.0506 for the second.

Going from `N#Cc1c(NC(=O)CSc2nnnn2C2CCCCC2)sc2c1CCCC2` to `Cc1ccc(-n2nnnc2SCC(=O)NC2CCCc3ccccc32)cc1` (stereo not given), the z-score falls from -0.0604 to -0.56.

Going from `O=C1C2C3C=CC(C3)C2C(=O)N1c1cccc(-c2nc3ccccc3o2)c1` (stereo not given) to `O=C(O)CNC(=O)c1nc(-c2ccccc2)n(-c2ccccc2)n1`, the z-score falls from 0.102 to -0.225.

First: COc1ccc(CNc2ccc(C)cc2)cc1Br
Second: COc1ccc(CNC(=O)CCNS(=O)(=O)c2ccc(C)cc2)cc1
The z-score of the first is higher: -0.124 for the first, -0.799 for the second.

First: COc1ccc(Nc2ncccc2C(=O)O)cc1
Second: CC(=O)c1cccc(NC(=O)COc2ccccc2)c1
The z-score of the first is higher: -0.0336 for the first, -0.673 for the second.

Going from `CC(=O)N/C(=C\c1cccc([N+](=O)[O-])c1)C(=O)NC(C)C` to `Cc1ccc(NCCC(=O)c2cccc([N+](=O)[O-])c2)c(C)c1`, the z-score falls from 0.0641 to -0.174.

Compared with `CC(C)CCOc1ccc(C(CC(N)=O)C(=O)O)cc1` (stereo not given), `CC(=O)c1ccc(OCCCC(=O)Nc2cc(S(=O)(=O)N(C)C)ccc2C)cc1` is higher in z-score: -0.256 for the first, 0.264 for the second.

Compared with `Cc1sc(NC(=O)COc2ccccc2)c(C#N)c1-c1ccccc1`, `CC(C)c1ccccc1NC(=O)CCc1nc2ccccc2s1` is higher in z-score: 0.602 for the first, 0.873 for the second.

Compared with `CCOC(=O)c1cccc(NC(=O)CSc2nnc(COc3ccccc3)n2CC)c1`, `CCOC(=O)c1ccccc1NC(=O)CSc1cccc[n+]1[O-]` is higher in z-score: -1.08 for the first, -0.181 for the second.

Going from `CCOC(=O)N1CCN(C(=O)c2ccc3c(SCC(=O)O)c4c(nc3c2)CCCC4)CC1` to `CCOC(=O)N1CCN(C(=O)CSc2nnc(-c3ccc(Cl)s3)o2)CC1`, the z-score falls from 0.527 to 0.313.

First: Cc1cc(S(=O)(=O)NCCc2ccccc2)c(C)s1
Second: CCCS(=O)(=O)n1nc(-c2ccccc2)cc1N
The z-score of the first is lower: -0.396 for the first, -0.138 for the second.

Compared with `COc1oc(-c2ccccc2)nc1C(F)(F)F`, `CN(NC(=O)c1ccccc1)c1nc2ccccc2nc1C(F)(F)F` is lower in z-score: -0.327 for the first, -0.409 for the second.

Compared with `CSc1nc2c(c(=O)n1-c1ccccc1)SCC2`, `CSc1nc2nc3c(cn2n1)C(=O)CC(c1ccccc1)C3` (stereo not given) is lower in z-score: 0.578 for the first, -0.316 for the second.

First: Cc1ccc([N+](=O)[O-])c2cccnc12
Second: O=c1c2ccccc2nc(SCc2ccc([N+](=O)[O-])cc2)n1CCCO
The z-score of the first is higher: -0.158 for the first, -0.224 for the second.

Going from `O=C(CN1CCCCCC1)Nc1ccc(Br)cc1Br` to `O=C(CN1C(=O)c2cccc3cccc(c23)C1=O)N1CCCCCC1`, the z-score rises from -0.316 to 0.175.

First: Cc1ccc(C(=O)c2c(NC(=O)c3ccccc3)sc(C)c2C)cc1
Second: Cc1ccc(C(=O)OCC(=O)c2c[nH]c3ccccc23)cc1
The z-score of the first is lower: -0.0472 for the first, -0.02 for the second.

Compared with `O=C(c1ccccc1)N1CCCCC(S(=O)(=O)c2ccc3ccccc3c2)C1=O` (stereo not given), `O=C(CC(c1ccccc1)C1CCCCC1=O)c1ccco1` (stereo not given) is lower in z-score: -0.273 for the first, -0.327 for the second.

First: O=C(Nc1ccc(NC(=O)c2cccs2)cc1)c1ccc(Br)o1
Second: S=C(NCCCc1ccccc1)Nc1ccc(Cl)cc1
The z-score of the first is lower: 0.0278 for the first, 0.355 for the second.

Compared with `CCn1cnc2sc(C(=O)N3CCN(Cc4ccc5c(c4)OCO5)CC3)c(C)c2c1=O`, `COC(=O)c1ccc(Cn2cnc3c(cnn3-c3ccc(C)c(C)c3)c2=O)o1` is lower in z-score: 2.58 for the first, -0.107 for the second.

First: O=C(NCCCN1CCCC1)Nc1cccc2ccccc12
Second: O=C(Cn1cc(SCc2ccc(Cl)cc2)c2ccccc21)N1CCOCC1
The z-score of the first is higher: -0.463 for the first, -2.33 for the second.

Compared with `COc1ccccc1C(=O)Nc1nc2ccc(S(C)(=O)=O)cc2s1`, `COc1ccccc1OCCSc1nc2ccccc2c(=O)[nH]1` is lower in z-score: 0.884 for the first, 0.235 for the second.

Going from `C=CCN(CC(=O)NCc1ccc(F)cc1)C(=O)c1csnn1` to `O=C(NCc1ccncc1)c1ccc(Cn2cc(C(F)(F)F)ccc2=O)cc1`, the z-score falls from 0.333 to 0.175.

Going from `CC(Oc1ccccc1Cl)c1nnc(N)s1` (stereo not given) to `CSc1nnc(-c2ccccc2Cl)n1N`, the z-score rises from -0.454 to 0.421.

Going from `CC1CCCCN1C(=S)Nc1ccc2nc3n(c(=O)c2c1)CCCCC3` (stereo not given) to `COc1ccccc1OCC(=O)Nc1cc(S(=O)(=O)N2CCCCC2)ccc1N1CCCCC1`, the z-score falls from -0.133 to -0.267.

Going from `O=C(CSc1ccc(-c2ccc(F)cc2)nn1)N1CCCc2ccccc21` to `Fc1ccc(-c2nc3n(n2)Cc2ccccc2-3)cc1`, the z-score falls from -0.481 to -0.577.

First: Cc1ccc(S(=O)(=O)/N=C2/C=C(Sc3ncn[nH]3)C(=O)c3ccccc32)cc1
Second: O=C(NCc1cn(-c2ccccc2)nc1-c1ccc(F)cc1)c1cccc([N+](=O)[O-])c1
The z-score of the first is higher: -0.0201 for the first, -0.22 for the second.

Compared with `COc1ccccc1/C=C/CN1CCOCC1`, `COc1cc2c(cc1OC)C(C(=O)NCCN1CCOCC1)C1c3ccccc3CCN1C2=O` (stereo not given) is lower in z-score: -0.249 for the first, -1.12 for the second.

Going from `CC(CCc1ccccc1)NCc1ccncc1` (stereo not given) to `CC(NC(=O)c1ccc(-c2cc(C(F)(F)F)ccc2Cl)o1)c1ccccc1` (stereo not given), the z-score falls from 0.717 to -0.132.

Compared with `C/C(=N\OC(=O)c1ccccc1F)c1nccs1`, `Oc1[nH]c2ccccc2c1N=Nc1ccccc1F` is lower in z-score: 0.257 for the first, 0.0754 for the second.

Compared with `O=[n+]1c2c(n([O-])c3c1CCCC3)CCCCC2`, `O=C(Nc1ccc(Cl)cc1)ON=C1CCCC1` is higher in z-score: -0.198 for the first, 0.0813 for the second.

First: CC1CCCCN1CCNC(=O)C1CCN(S(=O)(=O)N2CCCCC2)CC1 (stereo not given)
Second: S=C(Nc1ccc(Oc2ccccc2)cc1)NC1CCCCCC1
The z-score of the first is higher: 1.12 for the first, 0.425 for the second.

Going from `CCN(C(=O)CSc1nnc(Nc2cccc(C)c2C)s1)C1CCS(=O)(=O)C1` (stereo not given) to `CCCCN(CC)C(=O)CN(C)S(=O)(=O)c1cccc2nsnc12`, the z-score rises from -0.226 to 1.11.

Compared with `COC(=O)C(O)(CC(=O)Nc1ccc(Cl)cc1Cl)C(F)(F)F` (stereo not given), `COc1ccccc1NC(=O)CN1C(=O)NC(C)(C)C1=O` is higher in z-score: 0.0101 for the first, 0.521 for the second.

Compared with `CNC(=S)N/N=C/c1c(C)nn(-c2cccc(Cl)c2)c1Cl`, `Cc1nn(Cc2cccc(C(=O)Nn3cc([N+](=O)[O-])cn3)c2)c(C)c1[N+](=O)[O-]` is higher in z-score: -0.134 for the first, 0.801 for the second.

Going from `COc1cc(CNCCC2CCOC(C)(C)C2)ccc1O` (stereo not given) to `COC(=O)C1OC2(OC1C(=O)OC)c1ccccc1-c1ccccc12` (stereo not given), the z-score falls from 0.188 to -0.568.

First: FC(F)(F)c1cc(-c2ccco2)nc(NCc2ccc(Cl)cc2)n1
Second: Cc1cccc(N2CN(Cc3ccco3)CNC2=S)c1C
The z-score of the first is higher: 0.341 for the first, -2.05 for the second.

Compared with `CCOc1ccccc1-c1n[nH]c(=S)o1`, `Cc1occc1C(=O)N=Nc1c(O)[nH]c2ccc(Br)cc12` is lower in z-score: -0.00648 for the first, -0.135 for the second.

In the case of `CCOc1ccc(C(=O)CN2CCN(S(=O)(=O)c3ccc(Br)cc3)CC2)cc1`, the z-score is reported as active: 4.08.
